Experimental data: the supplement of paper PMC7238544
Structures can show the parent of a compound that is named as a salt. ± gives the standard deviation of the averaged measurements. The list shows a part of the results.

Tests used:
Details in all cases: priming compound concentration 100 µM
hAMSC donor 1 [1] = assay: Hoechst total cell count ratio vs vehicle control; higher = more cells (less toxicity)
hAMSC donor 2 [2] = assay: as above
hAMSC donor 1 [3] = assay: transgenic luciferase activity (RLU/mg protein) fold change vs vehicle control (ratio); higher = more transgene expression
hAMSC donor 1 [4] = assay: transfection efficiency (EGFP+ cells / Hoechst count) fold change vs vehicle control (ratio); higher = enhanced transfection
hAMSC donor 2 [5] = assay: as above
hAMSC donor 2 [6] = assay: transgenic luciferase activity (RLU/mg protein) fold change vs vehicle control (ratio); hAMSC are human adipose-derived mesenchymal stem cells given an EGFP-luciferase plasmid by lipofection; higher = more transgene expression
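Throughout, for Hoechst total cell count ratio vs vehicle control: compound added 30 min before Lipofectamine 3000 lipoplex delivery, triplicate-well means expressed against DMSO vehicle control wells of the same 96-well plate.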
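Throughout, for transfection efficiency (EGFP+ cells / Hoechst count) fold change vs vehicle control: compounds added 30 min before Lipofectamine 3000 lipoplex transfection, triplicate means relative to DMSO vehicle wells on the same plate, luciferase RLU normalized to BCA total protein.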
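Throughout, for transgenic luciferase activity (RLU/mg protein) fold change vs vehicle control: compounds in DMSO added 30 min before Lipofectamine 3000 transfection of pEGFP-Luc in 96-well plates, values are means of triplicate wells over DMSO vehicle wells on the same plate.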

| Structure (SMILES) | Hoechst total cell count ratio (hAMSC donor 1 [1]) | Hoechst total cell count ratio (hAMSC donor 2 [2]) | transgenic luciferase activity (hAMSC donor 1 [3]) | transfection efficiency (hAMSC donor 1 [4]) | transfection efficiency (hAMSC donor 2 [5]) | transgenic luciferase activity (hAMSC donor 2 [6]) |
| --- | --- | --- | --- | --- | --- | --- |
| CN1CCN(C2=Nc3cc(Cl)ccc3Nc3ccccc32)CC1 [Clozapine] | 1.5 ± 0.24 | 1.32 ± 0.11 | 0.257 ± 0.089 | 0.668 ± 0.13 | 0.833 ± 0.27 | – |
| CNCC(O)c1ccc(O)c(O)c1 (centres undefined) [Racepinephrine] | 1.42 ± 0.089 | 1.16 ± 0.17 | 0.629 ± 0.29 | 0.657 ± 0.12 | 0.516 ± 0.1 | – |
| CN1CCN(CCCN2c3ccccc3Sc3ccc(Cl)cc32)CC1 [Prochlorperazine maleate] | 0.0177 ± 0.018 | 0.107 ± 0.0085 | – | 3.45 ± 5.4 | 0.0333 ± 0.058 | 0.000284 ± 3.5e-05 |
| CNCCCN1c2ccccc2CCc2ccccc21 [Desipramine hydrochloride] | 0.316 ± 0.12 | 0.0877 ± 0.014 | 0.0173 ± 0.015 | 0.617 ± 0.62 | 0.934 ± 0.74 | – |
| CN(C)CCOc1ccc(/C(=C(/CCCl)c2ccccc2)c2ccccc2)cc1 [Toremifene citrate] | 0.124 ± 0.03 | 0.0197 ± 0.005 | 0.000903 ± 0.00063 | 0.862 ± 0.11 | 1.62 ± 2 | – |
| CC(C)C[C@@H](NC(=O)OCC1c2ccccc2-c2ccccc21)C(=O)O [N-Fmoc-D-leucine] | 1.101 ± 0.011 | 1.34 ± 0.21 | 0.62 ± 0.25 | 1.86 ± 0.14 | 0.834 ± 0.044 | – |
| CCC1(c2ccccc2)C(=O)NCNC1=O [Primidone] | 1.32 ± 0.12 | 1.5 ± 0.32 | 0.893 ± 0.52 | 0.758 ± 0.2 | 0.816 ± 0.1 | – |
| CN/C(=N\CCSCc1nc[nH]c1C)NC#N [Cimetidine] | 1.55 ± 0.16 | 1.2 ± 0.16 | 2.4 ± 1.1 | 1.36 ± 0.33 | 1.05 ± 0.19 | – |
| CO/N=C(\C(=O)N[C@@H]1C(=O)N2C(C(=O)O)=C(COC(N)=O)CS[C@H]12)c1ccco1 [Cefuroxime] | 1.28 ± 0.085 | 1.36 ± 0.19 | 1.03 ± 0.62 | 1.02 ± 0.82 | 0.681 ± 0.25 | – |
| c1cnc(N2CCN(Cc3ccc4c(c3)OCO4)CC2)nc1 [Piribedil hydrochloride] | 1.54 ± 0.2 | 1.29 ± 0.074 | 1.78 ± 0.52 | 1.02 ± 0.13 | 1.03 ± 0.1 | – |
| CCN(CC)CCNC(=O)c1cc(Cl)c(N)cc1OC [Metoclopramide hydrochloride] | 1.38 ± 0.076 | 1.3 ± 0.32 | 0.537 ± 0.3 | 1.1 ± 0.28 | 1.12 ± 0.12 | – |
| CCN(CC)CCOC(=O)C1(C2CCCCC2)CCCCC1 [Dicyclomine hydrochloride] | 2.48 ± 0.13 | 1.58 ± 0.13 | 0.147 ± 0.06 | 0.201 ± 0.015 | 0.663 ± 0.077 | – |
| CCc1cccc2c3c([nH]c12)C(CC)(CC(=O)O)OCC3 (centres undefined) [Etodolac] | 1.14 ± 0.069 | 1.11 ± 0.08 | 0.519 ± 0.07 | 0.951 ± 0.22 | 0.8 ± 0.14 | – |
| O=c1[nH]c(=O)n([C@H]2C[C@H](O)[C@@H](CO)O2)cc1F [Floxuridine] | 1.3 ± 0.062 | 0.961 ± 0.056 | 0.684 ± 0.24 | 0.889 ± 0.21 | 1.01 ± 0.1 | – |
| CC(C)C(=O)Nc1ccc([N+](=O)[O-])c(C(F)(F)F)c1 [Flutamide] | 1.16 ± 0.056 | 1.5 ± 0.41 | 1.77 ± 0.49 | 1.11 ± 0.25 | 0.874 ± 0.21 | – |
| O=C(CCCN1CC=C(n2c(=O)[nH]c3ccccc32)CC1)c1ccc(F)cc1 [Droperidol] | 1.53 ± 0.13 | 1.16 ± 0.066 | 0.142 ± 0.02 | 0.704 ± 0.081 | 0.64 ± 0.068 | – |
| Cc1ccc(Cl)c(Nc2ccccc2C(=O)O)c1Cl [Meclofenamic acid sodium salt] | 1.25 ± 0.19 | 0.685 ± 0.21 | 0.285 ± 0.18 | 1.19 ± 0.16 | 0.767 ± 0.075 | – |
| CC(=O)OCC(=O)[C@@]12OC(C)(C)O[C@@H]1C[C@H]1[C@@H]3C[C@H](F)C4=CC(=O)C=C[C@]4(C)[C@@]3(F)[C@@H](O)C[C@@]12C [Fluocinolone acetonide 21-acetate] | 1.22 ± 0.022 | 0.964 ± 0.2 | 7.36 ± 2.4 | 3.73 ± 1.3 | 2.81 ± 0.57 | – |
| CC12CC3CC(C)(C1)CC(N)(C3)C2 [Memantine hydrochloride] | 1.94 ± 0.26 | 1.19 ± 0.17 | 0.778 ± 0.15 | 0.92 ± 0.2 | 0.797 ± 0.056 | – |
| CNCCCC12CCC(c3ccccc31)c1ccccc12 [Maprotiline hydrochloride] | 0.267 ± 0.036 | 0.064 ± 0.025 | – | 0.469 ± 0.63 | 0.477 ± 0.2 | – |
| Clc1ccc2c(c1)C(N1CCNCC1)=Nc1ccccc1O2 [Amoxapine] | 0.102 ± 0.041 | 0.108 ± 0.052 | – | 0.602 ± 0.53 | 0 | 0.00166 ± 0.00034 |
| CNCC[C@H](Oc1cccc2ccccc12)c1cccs1 [Duloxetine hydrochloride] | 0.0907 ± 0.025 | 0.061 ± 0.028 | – | 0.423 ± 0.12 | 0.238 ± 0.28 | 0.00555 ± 0.0079 |
| CC(C)OC(=O)C(C)(C)Oc1ccc(C(=O)c2ccc(Cl)cc2)cc1 [Fenofibrate] | 1.46 ± 0.11 | 1.43 ± 0.2 | 0.378 ± 0.16 | 0.755 ± 0.18 | 0.346 ± 0.016 | – |
| CO[C@H]1/C=C/O[C@@]2(C)Oc3c(C)c(O)c4c(O)c(c(/C=N/N5CCN(C)CC5)c(O)c4c3C2=O)NC(=O)/C(C)=C\C=C\[C@H](C)[C@H](O)[C@@H](C)[C@@H](O)[C@@H](C)[C@H](OC(C)=O)[C@@H]1C [Rifampicin] | 2.32 ± 0.11 | 1.82 ± 0.29 | 0.234 ± 0.15 | 0.401 ± 0.062 | 0.448 ± 0.039 | – |
| COc1cc(OC)c(C(=O)CCCN2CCCC2)c(OC)c1 [Buflomedil hydrochloride] | 1.55 ± 0.1 | 1.11 ± 0.19 | 0.266 ± 0.11 | 0.801 ± 0.17 | 0.774 ± 0.14 | – |
| NC(=O)c1cnccn1 [Pyrazinamide] | 0.984 ± 0.04 | 1.37 ± 0.32 | 0.659 ± 0.2 | 1.21 ± 0.15 | 0.803 ± 0.2 | – |
| COc1ccc([C@@H]2Sc3ccccc3N(CCN(C)C)C(=O)[C@@H]2OC(C)=O)cc1 [(+)-cis-Diltiazem hydrochloride] | 1.79 ± 0.12 | 1.73 ± 0.18 | 10.8 ± 3.4 | 1.5 ± 0.12 | 0.808 ± 0.2 | – |
| O=C1Cc2cc(CCN3CCN(c4nsc5ccccc45)CC3)c(Cl)cc2N1 [Ziprasidone] | 1 ± 0.16 | 0.924 ± 0.27 | 0.173 ± 0.14 | 1.01 ± 0.39 | 0.954 ± 0.55 | – |
